# Assay results reported in the supplement of paper PMC8728848.
# The list shows a part of the results.
# B1: PX9937D-bvu-500-26-500 (Bacteroides vulgatus) (protein)
# chain: DPVSDITDLNYWKTPEQFDSFVFGLHSRFRSHSWNMFLLGEARSDVFGGIPFGGEATQGMERFPYNTLNAENPGISGFGDLYQNINQMNLFISRTLHTDVLTESARNYYLGQVYGLRAYYMYQLYRSWGDVVFTEEPSLGFEVGKLAKAATPAAEIFEQVKKDIESSLSYFGSDYTIKEKKSLWSKAATLMLKADVYLWSAHRDGGEGDARTAKNALVDIQNNISRSNLDLMDTYQGVFAYDNKGNKEIIFTIHNELFEYNLWNGNNDLFPQADYLGKFYNADGTLINTSVENNFGIMRLMVKLENFKKFLPGDTRRDVTLKDVYNKVENGKLELVGVYPHKYWGVMNGSTRVRCDDYPIYRYSDLLLMLAEAKVLLGEDPATEINRVRRRAFGDAYDASTVGFPNQEVDKRPADAVLQERLFEFMLEGKRWYDLRRFGDSYVLDYTPAEPARLLWPINQGALTNNPLLKQTVGY
# What was measured:
# Experiment in all cases: glycan array binding signal (z-score within array); higher = stronger binding
# Conditions in all cases: glycan notation: IUPAC condensed, linker removed
# [1] = target: Fuc(a1-2)Gal
# How it was run: (§1)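 Glycan array data were curated from 3228 arrays in the Consortium for Functional Glycomics database and kept only where the protein sequence was available. Glycan names were converted to IUPAC-condensed notation, and columns mapping to the same glycan were averaged. The binding signal is a within-array Z-score, averaged across arrays of the same protein sequence at different concentrations or buffers and across linkers. Negative Z-scores can be read as non-binding.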
# [2] = target: Fuc(a1-2)Gal(b1-3)GalNAc
# How it was run: as §1
# [3] = target: Fuc(a1-2)Gal(b1-3)GalNAc(a1-3)[Fuc(a1-2)]Gal(b1-4)Glc
# How it was run: as §1
# [4] = target: Fuc(a1-2)Gal(b1-3)GalNAc(a1-3)[Fuc(a1-2)]Gal(b1-4)GlcNAc
# How it was run: as §1
# [5] = target: Fuc(a1-2)Gal(b1-3)GalNAc(b1-3)Gal
# How it was run: as §1
# [6] = target: Fuc(a1-2)Gal(b1-3)GalNAc(b1-3)Gal(a1-4)Gal(b1-4)Glc
# How it was run: as §1
# [7] = target: Fuc(a1-2)Gal(b1-3)GalNAc(b1-4)[Neu5Ac(a2-3)]Gal(b1-4)Glc
# How it was run: as §1
# [8] = target: Fuc(a1-2)Gal(b1-3)GlcNAc
# How it was run: as §1
# [9] = target: Fuc(a1-2)Gal(b1-3)GlcNAc(b1-2)Man(a1-3)[Fuc(a1-2)Gal(b1-3)GlcNAc(b1-2)Man(a1-6)]Man(b1-4)GlcNAc(b1-4)GlcNAc
# How it was run: as §1
# [10] = target: Fuc(a1-2)Gal(b1-3)GlcNAc(b1-2)Man(a1-3)[Fuc(a1-2)Gal(b1-3)GlcNAc(b1-2)Man(a1-6)]Man(b1-4)GlcNAc(b1-4)[Fuc(a1-6)]GlcNAc
# How it was run: as §1
# [11] = target: Fuc(a1-2)Gal(b1-3)GlcNAc(b1-3)Gal(b1-4)Glc
# How it was run: as §1
# [12] = target: Fuc(a1-2)Gal(b1-3)GlcNAc(b1-3)GalNAc
# How it was run: as §1
# [13] = target: Fuc(a1-2)Gal(b1-3)GlcNAc(b1-3)[Fuc(a1-2)Gal(b1-3)GlcNAc(b1-6)]GalNAc
# How it was run: as §1
# [14] = target: Fuc(a1-2)Gal(b1-3)GlcNAc(b1-3)[Gal(b1-4)GlcNAc(b1-6)]Gal(b1-4)Glc
# How it was run: as §1
# [15] = target: Fuc(a1-2)Gal(b1-3)GlcNAc(b1-3)[Neu5Ac(a2-6)Gal(b1-4)GlcNAc(b1-6)]Gal(b1-4)Glc
# How it was run: as §1
# [16] = target: Fuc(a1-2)Gal(b1-3)GlcNAc6S
# How it was run: as §1
# [17] = target: Fuc(a1-2)Gal(b1-3)[Fuc(a1-4)]GlcNAc
# How it was run: as §1
# [18] = target: Fuc(a1-2)Gal(b1-3)[Fuc(a1-4)]GlcNAc(b1-2)Man(a1-3)[Fuc(a1-2)Gal(b1-3)[Fuc(a1-4)]GlcNAc(b1-2)Man(a1-3)]Man(b1-4)GlcNAc(b1-4)GlcNAc
# How it was run: as §1
# [19] = target: Fuc(a1-2)Gal(b1-3)[Fuc(a1-4)]GlcNAc(b1-2)Man(a1-3)[Fuc(a1-2)Gal(b1-3)[Fuc(a1-4)]GlcNAc(b1-2)Man(a1-6)]Man(b1-4)GlcNAc(b1-4)[Fuc(a1-6)]GlcNAc(b1-4)[Fuc(a1-6)]GlcNAc
# How it was run: as §1
# [20] = target: Fuc(a1-2)Gal(b1-3)[Fuc(a1-4)]GlcNAc(b1-3)[Fuc(a1-3)[Gal(b1-4)]GlcNAc(b1-6)]Gal(b1-4)Glc
# How it was run: as §1
# [21] = target: Fuc(a1-2)Gal(b1-3)[Fuc(a1-4)]GlcNAc(b1-3)[Gal(b1-4)GlcNAc(b1-6)]Gal(b1-4)Glc
# How it was run: as §1
# [22] = target: Fuc(a1-2)Gal(b1-4)Glc
# How it was run: as §1
# [23] = target: Fuc(a1-2)Gal(b1-4)Glc6S
# How it was run: as §1
# [24] = target: Fuc(a1-2)Gal(b1-4)GlcNAc
# How it was run: as §1
# [25] = target: Fuc(a1-2)Gal(b1-4)GlcNAc(b1-2)Man
# How it was run: as §1
# [26] = target: Fuc(a1-2)Gal(b1-4)GlcNAc(b1-2)Man(a1-3)[Fuc(a1-2)Gal(b1-4)GlcNAc(b1-2)Man(a1-6)]Man(b1-4)GlcNAc(b1-4)GlcNAc
# How it was run: as §1
# [27] = target: Fuc(a1-2)Gal(b1-4)GlcNAc(b1-2)Man(a1-3)[Fuc(a1-2)Gal(b1-4)GlcNAc(b1-2)Man(a1-6)]Man(b1-4)GlcNAc(b1-4)[Fuc(a1-6)]GlcNAc
# How it was run: as §1
# [28] = target: Fuc(a1-2)Gal(b1-4)GlcNAc(b1-2)[Fuc(a1-2)Gal(b1-4)GlcNAc(b1-4)]Man(a1-3)[Fuc(a1-2)Gal(b1-4)GlcNAc(b1-2)Man(a1-6)]Man(b1-4)GlcNAc(b1-4)GlcNAc
# How it was run: as §1
# [29] = target: Fuc(a1-2)Gal(b1-4)GlcNAc(b1-3)Gal(b1-4)GlcNAc
# How it was run: as §1
# [30] = target: Fuc(a1-2)Gal(b1-4)GlcNAc(b1-3)Gal(b1-4)GlcNAc(b1-2)Man(a1-3)[Fuc(a1-2)Gal(b1-4)GlcNAc(b1-3)Gal(b1-4)GlcNAc(b1-2)Man(a1-6)]Man(b1-4)GlcNAc(b1-4)GlcNAc
# How it was run: as §1
binder,measurement,setting,value
B1,glycan array binding signal (z-score),[1],-0.144
same,glycan array binding signal (z-score),[2],-0.346
same,glycan array binding signal (z-score),[3],-0.631
same,glycan array binding signal (z-score),[4],-0.625
same,glycan array binding signal (z-score),[5],0.258
same,glycan array binding signal (z-score),[6],0.37
same,glycan array binding signal (z-score),[7],-0.261
same,glycan array binding signal (z-score),[8],-0.32
same,glycan array binding signal (z-score),[9],0.319
same,glycan array binding signal (z-score),[10],-0.066
same,glycan array binding signal (z-score),[11],-0.541
same,glycan array binding signal (z-score),[12],-0.087
same,glycan array binding signal (z-score),[13],-0.163
same,glycan array binding signal (z-score),[14],-0.166
same,glycan array binding signal (z-score),[15],-0.051
same,glycan array binding signal (z-score),[16],0.249
same,glycan array binding signal (z-score),[17],-0.665
same,glycan array binding signal (z-score),[18],0.219
same,glycan array binding signal (z-score),[19],-0.265
same,glycan array binding signal (z-score),[20],0.103
same,glycan array binding signal (z-score),[21],-0.131
same,glycan array binding signal (z-score),[22],-0.401
same,glycan array binding signal (z-score),[23],-0.128
same,glycan array binding signal (z-score),[24],-0.263
same,glycan array binding signal (z-score),[25],-0.43
same,glycan array binding signal (z-score),[26],1.07
same,glycan array binding signal (z-score),[27],2.63
same,glycan array binding signal (z-score),[28],0.277
same,glycan array binding signal (z-score),[29],-0.632
same,glycan array binding signal (z-score),[30],-0.017
